The whole screen tested about 310,000 compounds, of which about 14,000 (4.5%) showed an effect of 50% or more. Effects have a minus sign here. Some of the results follow.
Target: human ether-à-go-go-related gene (hERG) potassium channel (human, UniProt Q12809)
Assay: primary screen, population patch clamp on CHO cells stably expressing hERG
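Further: peak tail current of the secondary pulse compared with the same well before compound.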

Sequence of human ether-à-go-go-related gene (hERG) potassium channel (Q12809 whole entry, looked up): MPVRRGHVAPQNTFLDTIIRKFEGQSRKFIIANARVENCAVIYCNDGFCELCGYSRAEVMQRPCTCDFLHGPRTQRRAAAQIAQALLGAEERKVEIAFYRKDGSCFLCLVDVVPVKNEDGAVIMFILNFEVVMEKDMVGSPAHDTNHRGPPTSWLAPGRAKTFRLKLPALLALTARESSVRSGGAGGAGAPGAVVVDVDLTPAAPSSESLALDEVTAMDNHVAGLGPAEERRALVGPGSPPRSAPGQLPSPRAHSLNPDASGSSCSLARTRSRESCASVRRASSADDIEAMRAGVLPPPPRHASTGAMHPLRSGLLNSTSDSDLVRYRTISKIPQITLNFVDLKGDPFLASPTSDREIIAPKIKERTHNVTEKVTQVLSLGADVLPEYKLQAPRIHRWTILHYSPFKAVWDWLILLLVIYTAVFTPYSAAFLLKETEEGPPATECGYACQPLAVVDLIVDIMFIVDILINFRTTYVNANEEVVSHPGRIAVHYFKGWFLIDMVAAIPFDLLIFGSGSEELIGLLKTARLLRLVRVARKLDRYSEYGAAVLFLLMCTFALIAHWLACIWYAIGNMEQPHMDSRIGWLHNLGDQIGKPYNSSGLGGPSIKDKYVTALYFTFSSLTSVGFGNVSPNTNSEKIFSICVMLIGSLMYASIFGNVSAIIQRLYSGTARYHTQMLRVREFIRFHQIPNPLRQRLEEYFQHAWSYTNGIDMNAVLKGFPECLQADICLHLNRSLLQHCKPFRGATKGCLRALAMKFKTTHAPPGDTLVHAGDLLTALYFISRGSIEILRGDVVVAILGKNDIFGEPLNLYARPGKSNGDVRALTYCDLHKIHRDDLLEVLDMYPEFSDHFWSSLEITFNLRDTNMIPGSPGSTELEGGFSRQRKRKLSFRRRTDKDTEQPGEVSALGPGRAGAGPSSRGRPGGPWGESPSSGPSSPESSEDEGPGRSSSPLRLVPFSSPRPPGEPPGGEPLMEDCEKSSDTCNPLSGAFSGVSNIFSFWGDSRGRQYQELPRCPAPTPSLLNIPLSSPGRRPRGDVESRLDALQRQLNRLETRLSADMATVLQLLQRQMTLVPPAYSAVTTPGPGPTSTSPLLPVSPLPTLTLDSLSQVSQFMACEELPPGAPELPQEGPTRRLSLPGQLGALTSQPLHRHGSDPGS

SMILES	hERG current change (%, negative = inhibition) at 10uM [%]
Cc1ccc(-n2nc3c(=O)n(C(C)C(=O)NCCCc4ccccc4)nc(C)c3c2C)cc1 (stereo not shown)	-55.2
CCCC(O)(CCN1CCOCC1)c1ccc(Cl)cc1 (stereo not shown)	3.77
Cc1cc(C)cc(NC(=O)C(OC(=O)c2sccc2C)c2ccccc2)c1 (stereo not shown)	13.5
CCOC(=O)c1c(-c2cccc([N+](=O)[O-])c2)csc1N	-15.6
c1ccc(-c2cc(-c3nnco3)c3ccccc3n2)nc1	18.2
COc1ccc(OC)c(-c2csc(NC(=O)Cc3ccccc3)n2)c1	-13.7
CCOC(=O)N1CCN(C(=O)c2cn(CC)c3ccc(S(=O)(=O)N4CCOCC4)cc3c2=O)CC1	6.31
CCCN(C(=O)/C=C/c1nc2ccccc2s1)C1CCS(=O)(=O)C1 (stereo not shown)	-19.7
O=C(Nc1nnc(SCc2c(Cl)cccc2Cl)s1)C1CCCO1 (stereo not shown)	-22.9
CCn1nc(C(=O)OC(C(=O)c2c[nH]c3ccccc23)c2ccccc2)c2ccccc2c1=O (stereo not shown)	6.71
Br.N=C(N)SCc1nc2ccccc2c(=O)n1-c1ccccc1	-0.619
Nc1cccc(-c2csc(-n3ncc(C(=O)O)c3C(F)(F)F)n2)c1	8.11
O=C(NCCc1ccccc1F)C1CCC(=O)N(Cc2ccccc2F)C1 (stereo not shown)	13.2
CCN(C(=O)CSc1nnc2ccccn12)c1c(N)n(Cc2ccccc2)c(=O)[nH]c1=O	14.5
Cc1ccc(C(=O)O)cc1-n1c(C)cc(C=O)c1C	28.2
O=c1c2c([nH]c3ccccc13)CCCCC2	-7.34
O=C1COc2ccc(S(=O)(=O)N3CCN(c4cccc(Cl)c4)CC3)cc2N1	8.44
N/C(=N\OC(=O)c1ccccc1Cl)c1ccccc1	-16.2
Cc1cc(C)n(-c2ccc(Cl)c(C(=O)Nc3ccc(-c4nnc5n4CCCCC5)cc3)n2)n1	2.05
COc1ccc(-n2c(C)c(C(=O)O)c3cc(OC)c4ccccc4c32)cc1	10.5
CCOC(=O)c1cnn2cc(-c3[nH]ncc3[N+](=O)[O-])cnc12	13.8
O=C(Cn1nnc2ccccc2c1=O)NCCc1ccc(F)cc1	6.36

SMILES	hERG current change (%, negative = inhibition) at 10uM [%]
COCCCNC(=O)Cn1c(=O)n(Cc2ccccc2Cl)c(=O)c2cc(OC)c(OC)cc21	9.48
CC(C)C(=O)Nc1sc2c(c1C(N)=O)CCN(Cc1ccccc1)C2.Cl	-108
CCOC(=O)c1c(NC(=O)C2C3C=CC(C3)C2C(=O)O)sc2c1CC(C)CC2 (stereo not shown)	19.6
N#CC1=C(N)NC(SCc2ccccc2)=C(C#N)C12CCCC2	-20
O=c1cnnc(SCc2ccc([N+](=O)[O-])cc2)[nH]1	-41
O=C(O)CC(c1cccc2ccccc12)n1cccc1 (stereo not shown)	6.08
Cc1ccc2nc(SCc3nnc(-c4ccccc4)o3)[nH]c2c1	-17.4
COc1ccc(CNC(=O)COC(=O)c2cncc(Br)c2)cc1	-7.49
COc1ccc(-c2nnn(CC(=O)N(CCCO)C(C(=O)NC3CCCC3)c3ccncc3)n2)cc1 (stereo not shown)	12.3
CN(C)/C=C/C(=O)/C=C/c1cn(-c2ncc(C(F)(F)F)cc2Cl)c2ccccc12	5.91
Cc1nn(Cc2c(Cl)cccc2Cl)c(C)c1NC(=O)c1cnn2c(C(F)F)cc(-c3ccccc3)nc12	13.6
COc1cccc(CN(C(=O)COc2ccccc2[N+](=O)[O-])C2CCS(=O)(=O)C2)c1 (stereo not shown)	-42
CCOC(=O)c1sc(NC(=O)c2cccc(S(=O)(=O)N3CCc4ccccc43)c2)c(C#N)c1C	3.25
O=C(Nc1ccc2ccccc2n1)c1ccccc1	1.09
COc1ccc(OCC(O)Cn2c(=N)n(CCN3CCOCC3)c3ccccc32)cc1.Cl (stereo not shown)	-34.7
COc1ccc(Cn2c(SC)nc3ccccc32)cc1[N+](=O)[O-]	13.9
COc1cc(OC)c2c(C)cc(=O)oc2c1C(CCN1CCN(c2ccccc2)CC1)c1ccc2c(c1)OCO2 (stereo not shown)	-11.1
CC1=C(C)CC2C(=O)N(Cc3ccccc3)C(=O)C2C1 (stereo not shown)	-1.45
O=C(Cc1ccccc1)NCc1ccc2c(c1)OCO2	3.22
O=C(/C=C/c1ccccc1)NCCSCc1ccccc1Cl	14.9
Cn1c(=O)c2c(nc(Oc3ccccc3N)n2C)n(C)c1=O	27.6

— PMC4336329 (PLoS ONE, 2015)
